Data: PubChem BioAssay AID686979 (National Center for Advancing Translational Sciences (NCATS), 2013)
Several values for one entry are separate records, joined by “and”; a condition that tells them apart may be missing. Equal values may be shown once. Out of some 420,000 compounds screened, about 50,000 (12%) were called active. Inconclusive means that the source gave no clear call. Such entries were picked first, then a sample of the others. Calls follow the shape of the dose curve; as a rule, active = well fitted inhibition curve with a large enough effect; inconclusive = small, poorly fitted or top-dose-only effect; inactive = flat fitted curve, though single readings scatter. Where the call is inconclusive, the potency comes from a doubtful curve fit.

experiment: qHTS for Inhibitors of human tyrosyl-DNA phosphodiesterase 1 (TDP1): qHTS in cells in presence of CPT; conditions: chicken DT40 Tdp1-/-;hTDP1 cells + 20 nM CPT, ATP luminescence, 48 h; activity change, negative = growth inhibition: at 46.2 µM (top of the series) unless noted; also: nearly all actives have a fitted effect of over 55% in size
In short: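 Chicken DT40 Tdp1-/- cells stably complemented with human TDP1 were seeded at 400 cells/well in medium containing 20 nM camptothecin, exposed to pin-transferred compounds, and grown at 37 °C for at least 48 hr. Viability was read as ATP luminescence.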
% is scaled to controls: 0 for no effect and ±100 for the full control effect; potency is read from the fitted curve at half-maximal effect; tags tell the direction and shape of the fitted curve.

Structure (SMILES) | Potency | activity change, negative = growth inhibition
O=C1NC(=O)N(Cc2ccco2)C(=O)/C1=C/C=C/c1ccco1 | active: 7.31 µM | –
CCC(CC)NCc1c[nH]c2ccccc12 | active: 4.11 µM | –
CCNC(=O)[C@@H]1O[C@@H](n2cnc3c(N)ncnc32)[C@H](O)[C@H]1O | inconclusive: 9.44 µM [inhibitor, full curve, poor fit] | –
c1ccc2c[n+](CCCCCCCCCC[n+]3ccc4ccccc4c3)ccc2c1 | active: 10.5 µM | –
CC#CP(=O)(OC)C(O)(CF)c1ccccc1 (stereo unspecified) | – | inactive: 7.19%
CCCCc1nc2ccccc2c(=O)n1-c1ccccc1[N+](=O)[O-] | inconclusive: 25.9 µM [inhibitor, single point] | –
CCCCCCNc1nc(OC)nc(N2CC3CC(C2)c2cccc(=O)n2C3)n1 (stereo unspecified) | inconclusive: 23.1 µM [inhibitor, single point] | –
COc1ccc(C(=O)c2c(C)n(CCN3CCOCC3)c3ccccc23)cc1 | inconclusive: 29.9 µM [inhibitor, single point] | –
CNC(=O)OCC[N+](C)(C)C | – | inactive: 5.13%
CN1C(=O)[C@@H](NC(=O)c2cc3ccccc3[nH]2)N=C(c2ccccc2)c2ccccc21 | inconclusive: 21.1 µM [inhibitor, single point] | –
CC[C@H]1CN2CCC1C[C@@H]2[C@H](O)c1ccnc2ccc(OC)cc12 (stereo partly specified) | inconclusive: 20.6 µM [inhibitor, single point] | –
COC(=O)C1=C(c2ccc(OC)c(OC)c2)C[C@@H]2CC[C@H]1N2C(=O)N1CCOCC1 | active: 20.6 µM | –
NCC(=O)c1ccccc1 | inactive and inconclusive: 10 µM [inhibitor, partial curve] | –
Clc1ccc(C(Cn2ccnc2)OCc2csc3c(Cl)cccc23)c(Cl)c1 (stereo unspecified) | active: 23.1 µM | –
COC(=O)[C@@H]1N=C(c2ccc(OC)cc2)O[C@]12C(=O)N(C)c1cccc(Cl)c12 | – | inactive: 9.1%
Fc1ccc(CNCCc2ccc3c(c2)OCO3)cc1 | – | inactive: -23.2%
O=C(Nc1ccccc1)C1=C[C@H](c2ccccc2)C[C@H](OCCCCO)O1 | active: 16.4 µM | –
CC(=O)OC1(c2ccccc2)CCN(C)C(C)C1C (stereo unspecified) | – | inactive: -0.904%
C[C@]12CC[C@@H]3c4ccc(O)c(O)c4CC[C@H]3[C@@H]1CC[C@@H]2O | active: 25.9 µM | –
COc1ccc(C(=O)C2CCCN(Cc3ccsc3)C2)cc1OC (stereo unspecified) | – | inactive: -23.9%
CC(c1ccccc1F)n1cc(C(=O)Nc2ccc3nc[nH]c3c2)nn1 (stereo unspecified) | – | inactive: -16.9%
COc1ccc2c(c1)CCC1[C@@H]2CCC2(C)[C@@H](NCCCCCCN3C(=O)C=CC3=O)CC[C@@H]12 (stereo partly specified) | inconclusive: 0.75 µM [inhibitor, full curve, poor fit] | –
CC(=O)O[C@@H]1CC[C@]2(C)C3CC[C@]4(C)C(=O)[C@H](O)CC4C3[C@@H](OC(C)=O)C[C@H]2C1 (stereo partly specified) | inconclusive: 29.1 µM [inhibitor, single point] | –
CC(NCC#Cc1ccccc1)C(O)c1ccccc1 (stereo unspecified) | – | inconclusive: -4.63% [inhibitor]

Structure (SMILES) | Potency | activity change, negative = growth inhibition
COc1nnc(-c2ccc(N3CCCCC3)c(NC(=O)c3ccccc3)c2)c2ccccc12 | inconclusive: 18.4 µM [inhibitor, single point] | –
CC(=O)Nc1cc(Cl)c(N=Cc2ccc(O)cc2O)cc1Cl | inconclusive: 29.1 µM [inhibitor, partial curve, poor fit] | –
CC(=O)c1ccc(OCC(=O)N2CCCC(N3CCN(c4ccccc4C)CC3)C2)cc1 (stereo unspecified) | inconclusive: 18.4 µM [inhibitor, single point] | –
COc1ccc(OC)c(-n2c(O)c(/C=C3\C=Nc4ccccc43)c(=O)[nH]c2=O)c1 | inconclusive: 29.1 µM [inhibitor, single point] | –
CCCCc1nc2ccccc2c(=O)n1-c1ccccc1O | inconclusive: 25.9 µM [inhibitor, single point] | –
Cc1ccc(S(=O)(=O)N2Cc3cc(N4CCOCC4)ccc3-n3nncc3C2)cc1 | – | inactive: -28.4%
CCOC(=O)[C@]12Cc3c(cc(OC)c(OC)c3OC)[C@H]1N(C)C(=O)c1cc(OC)ccc12 | active: 10.3 µM | –
Cn1c(=O)cc(OCC(=O)N2CCN(Cc3ccc4c(c3)OCO4)CC2)c2ccccc21 | inconclusive: 25.9 µM [inhibitor, single point] | –
O=C(COC(=O)Cc1ccccc1)NNC(=O)c1ccc([N+](=O)[O-])cc1 | – | inactive: -13.2%
O=c1[nH]c2ccccc2n1C1CCN(C(c2cc3ccccc3o2)c2nnnn2-c2ccc3c(c2)OCCO3)CC1 (stereo unspecified) | inconclusive: 29.1 µM [inhibitor, single point] | –
CC(C)CCOP(=O)(c1ccc(N(C)C)cc1)C(O)c1c(Cl)cccc1Cl (stereo unspecified) | inconclusive: 29.1 µM [inhibitor, single point] | –
Cc1[nH]nc2ccc(-c3cncc(OC[C@@H](N)Cc4c[nH]c5ccccc45)c3)cc12 | active: 0.58 µM | –
CN1C(=O)/C(=C/c2cccn2-c2ccc3ccccc3c2)C(=O)NC1=S | active: 3.26 µM | –
COc1ccc(CN2CCCC(C(=O)c3ccc(Cl)cc3)C2)c(OC)c1 (stereo unspecified) | inconclusive: 23.1 µM [inhibitor, single point] | –
Cn1nc(-c2ccc(C(=O)Nc3ccc(OC(F)(F)F)cc3)cc2)c2ccccc2c1=O | active: 9.2 µM | –
Cc1ccc(OCCOc2cccc(C=C3C(=O)NC(=O)NC3=O)c2)cc1 | inconclusive: 29.1 µM [inhibitor, single point] | –
O=C(Cn1c2c(c(-c3ccccc3Cl)cc1=O)CCC2)N1CCC2(CC1)OCCO2 | inconclusive: 20.6 µM [inhibitor, single point] | –
CC(=O)OC1CC2(O)C3CCC4CC(O)CCC4(C)C3CCC2(C)C1C1=CC(=O)OC1 (stereo unspecified) | inconclusive: 16.4 µM [inhibitor, single point] | –
O=c1c(O)c(-c2ccc(O)c(O)c2)oc2c(O)c(O)cc(O)c12 | active: 18.4 µM | –
CC1=C(O)C(=O)[C@H]2O[C@@H]2C1=O | active: 7.5 µM | –
C[C@H](CO)N1C[C@H](C)[C@@H](CN(C)Cc2ccc(-c3ccccc3)cc2)Oc2c(NC(=O)c3ccncc3)cccc2C1=O | active: 16.4 µM | –
O=C(c1csnn1)N1CCC[C@@]2(CCN(Cc3ccncc3)C2)C1 | – | inactive: -4.43%
CCOP(=O)(OCC)C(Nc1cccc(C(F)(F)F)c1)c1ccc(C)cc1 (stereo unspecified) | inconclusive: 29.1 µM [inhibitor, single point] | –
COc1ccc(NS(=O)(=O)c2ccc3c(c2)CCCN3C(=O)C2CCC2)cc1OC | active: 2.59 µM | –

Structure (SMILES) | Potency | activity change, negative = growth inhibition
COc1nc(N)nc2c1ncn2[C@@H]1O[C@H](CO)[C@@H](O)[C@@H]1O | inconclusive: 33.5 µM [inhibitor, single point] | –
CCOc1ccc2nc(N3CCC(C(=O)Nc4ccc(Br)cc4F)CC3)sc2c1 | active: 11.6 µM | –
O=c1c2ccccc2nc(/C=C/c2ccc(O)cc2)n1-c1ccccc1O | inconclusive: 18.4 µM [inhibitor, single point] | –
CSc1ccc(C(=O)C2CCCN(Cc3cc4ccccc4[nH]3)C2)cc1 (stereo unspecified) | inconclusive: 29.1 µM [inhibitor, single point] | –
CSCCC(c1nnnn1C(C)(C)C)N1CCC(n2c(=O)[nH]c3ccccc32)CC1 (stereo unspecified) | inconclusive: 20.6 µM [inhibitor, single point] | –
CC1(C)C2([N+](=O)[O-])CN3CC1([N+](=O)[O-])CN(C2)C3c1ccccn1 (stereo unspecified) | – | inactive: 5.66%
COC1=CC23CCCN2CCc2cc4c(cc2C3C1O)OCO4 (stereo unspecified) | inconclusive: 25.9 µM [inhibitor, single point] | –
CC(n1cc(C[C@H](N)C(=O)O)c2ccccc21)n1cc(C[C@H](N)C(=O)O)c2ccccc21 | – | inactive: 22.1%
CCOC(=O)[C@]12Cc3cc(N(C)C)ccc3[C@H]1N(Cc1ccccc1)C(=O)c1ccccc12 | active: 13 µM | –
COc1ccccc1-n1c(O)c(/C=N/N2CCCCC2)c(=O)n(-c2ccccc2OC)c1=S | – | inactive: -0.513%
C=CCn1c(O)c(C(CC)=Nc2ccc(N(C)C)cc2)c(=O)[nH]c1=O | – | inactive: -21.1%
CCCCCn1c(SCCCC)nc2c1c(=O)[nH]c(=O)n2C | inconclusive: 16.4 µM [inhibitor, partial curve] | –
CCOC(=O)c1ccc(-[n+]2c(-c3ccccc3)cc(-c3ccccc3)cc2-c2ccccc2)cc1 | active: 1.03 µM | –
CCN1C(=O)c2ccccc2Sc2ccc(NC(=O)Cc3ccc(OC)c(OC)c3)cc21 | inconclusive: 23.1 µM [inhibitor, single point] | –
O=c1[nH]c(O)c(N=Nc2cc(C(F)(F)F)ccc2Cl)c(=O)[nH]1 | inconclusive: 29.1 µM [inhibitor, single point] | –
Cc1nc2c(c(=O)[nH]1)C(c1ccccc1Cl)c1c(c3ccccc3oc1=O)O2 (stereo unspecified) | – | inactive: -3.61%
CCn1ccnc1CN1CCCC(C(=O)c2cccc(C(F)(F)F)c2)C1 (stereo unspecified) | inconclusive: 29.1 µM [inhibitor, single point] | –
N#CC(=C(O)c1ccc(S(=O)(=O)N(CCCl)CCCl)cc1)c1nc2ccccc2[nH]1 | – | inactive: -6.58%
CC1=C(/C=C/c2ccccc2)CCN(C)C1 | – | inactive: -16.9%
CC(=O)CCC(C)=O | – | inactive: -0.727%
Cc1cccc(-n2c(/C=C/c3ccccc3O)nc3ccccc3c2=O)c1 | inconclusive: 29.1 µM [inhibitor, single point] | –
Cc1cc(C)n2nc(SC(C)C(=O)N3CCC4(CC3)OCCO4)nc2n1 (stereo unspecified) | – | inactive: -1.02%
CCOC(=O)C1=C(N)Oc2cc(C)oc(=O)c2C12C(=O)N1c3c(cc(OC)cc32)C(C)=CC1(C)C (stereo unspecified) | inconclusive: 29.1 µM [inhibitor, single point] | –
